Results: the RNAGym collection of RNA variant scans (doi:10.7554/elife.90254)
Read counts are not given, so values of variants with three or more changes are uncertain.

B1: LINE1-full (parent)
chain: UACGUAGGUGGUUUUCCCCUGAUAGUGCUAAGGGGGCCUGGAAGUUUGGACUGGGCAGAGCUCAACACAGCGUGGCAAAGUGGCUGUGGCUAGACUGCCUCUCUGGAUUCCUCGUCACUCAGCAGGGCAUCUCUGAGAGAAAUGCC

Variants of: B1
Test: self-cleavage, relative activity (ratio to wild type); higher = more cleavage; in vitro, sequencing; the parent is a self-cleaving ribozyme
With A2G U12C U45A A69U U73C the self-cleavage was 0.
G48U A57U U134A A136G gave a self-cleavage of 0.02.
Variant A30G U52A U112C U132A G137U has a self-cleavage of 1.31.
In the case of U12A U39C A57G A117U, the self-cleavage is reported as 0.75.
Variant U14C A22U U52C has a self-cleavage of 1.87.
In the case of U20C A57G G72C A78G A107U, the self-cleavage is reported as 0.56.
With A64C A69G A129G the self-cleavage was 0.18.
A57G U81C A92G showed a self-cleavage of 0.
For A64G A117G A142G, the self-cleavage was 0.
Variant U1C U132C A141G has a self-cleavage of 1.38.
Work on U5A G83A A140G yielded a self-cleavage of 0.64.
Variant U12A G44U C56A has a self-cleavage of 0.
Work on U81A A121U A142G U143C yielded a self-cleavage of 2.51.
For U12C A117G U130C, the self-cleavage was 1.8.
For U12C U62A U109C, the self-cleavage was 0.08.
For A59U U96A A129G A136U, the self-cleavage was 0.05.
Work on U9C C68U U96A U130C yielded a self-cleavage of 0.
With U13C U45G U96C U134C the self-cleavage was 0.
Variant U12G U104C U143A has a self-cleavage of 1.47.
In the case of A43G U46C A59G C66U A141G, the self-cleavage is reported as 0.07.
U46C C90A A117G showed a self-cleavage of 0.
U12C A64U U87G gave a self-cleavage of 0.
In the case of A124U A138G A142U, the self-cleavage is reported as 1.58.
Work on U9A U12C U73A U130C A138U yielded a self-cleavage of 0.98.
For U12C G55C U130C G139U, the self-cleavage was 0.22.
For U13C A22G U39C U73G A77G G93A, the self-cleavage was 0.18.
U5C U62A A77G A140U gave a self-cleavage of 0.08.
With U46C U96A A107G the self-cleavage was 0.21.
Variant A65U U73A U115C has a self-cleavage of 0.13.
Work on U1C A67G A138G yielded a self-cleavage of 0.48.
Work on U1A U26A A42G U91C A141G yielded a self-cleavage of 0.77.
For C90U U96C A124G U143A, the self-cleavage was 0.06.
U9C U13G A65G U100A U132A A142G showed a self-cleavage of 0.
With U13G A22U U29C A43G U132C the self-cleavage was 0.
U12C U15A U87C A107G showed a self-cleavage of 0.
Variant U14C U20C U102C A107G has a self-cleavage of 1.31.
In the case of U15C U85A A94U, the self-cleavage is reported as 0.12.
In the case of U20C A117C U119C, the self-cleavage is reported as 0.92.
U5A A129U A136U showed a self-cleavage of 0.
With U14C A94G C116U the self-cleavage was 0.13.
In the case of U14A U26C U132A, the self-cleavage is reported as 0.98.
A50G A69G C120A gave a self-cleavage of 0.22.
U47A A77G G86A gave a self-cleavage of 0.08.
G49A U62C U87C gave a self-cleavage of 0.08.
With U5C U15C A22G A42G A121U A129G U130C U134A the self-cleavage was 0.
Variant A2G U73A A121G A138G A141G has a self-cleavage of 1.15.
Work on U13C A59G U91C A138G yielded a self-cleavage of 0.
For G32A A78G A79U, the self-cleavage was 0.67.
In the case of A50G A67G G88A C113A U115C U130C U143C, the self-cleavage is reported as 0.03.
U45C A64G G80A U104C A124U G125A A142G gave a self-cleavage of 0.4.
U47C U115A C123U showed a self-cleavage of 0.99.
With U26C A64G U104C G114A the self-cleavage was 0.08.
U13A A22G U39C A43G G74A G75C gave a self-cleavage of 0.43.
With U5C U20C U130C the self-cleavage was 1.02.
Work on A2G U47A U102C yielded a self-cleavage of 1.25.
With U1C A94U U112C the self-cleavage was 0.07.
In the case of U1C A42U A77G G126A, the self-cleavage is reported as 0.67.
Variant A59U C98U C113A has a self-cleavage of 0.36.
For U62A G83A U100C, the self-cleavage was 0.05.
G35U G80C A94U A142G showed a self-cleavage of 0.21.
Work on U9C A64U A77G U100C yielded a self-cleavage of 1.59.
For A2G G74U U119C U134A, the self-cleavage was 1.4.
With U13C U112C A129G U132A the self-cleavage was 1.69.
A2G U15A A22U U26C G54A U96C gave a self-cleavage of 0.37.
U91C U104C A129U U134C showed a self-cleavage of 1.02.
For U12C U26G A57U A138G, the self-cleavage was 0.96.
In the case of U13C A22U G36U U115C, the self-cleavage is reported as 1.3.
For G33U U96A U102C, the self-cleavage was 0.35.
A50U A65G U73G U81A G122A gave a self-cleavage of 0.03.
For U47A A124G U134A A140G, the self-cleavage was 0.07.
For G7A U12G G27A, the self-cleavage was 0.75.
Work on U45C U130C A140G yielded a self-cleavage of 1.13.
A2G U20A U26A U81A showed a self-cleavage of 0.93.
Variant U13C A77U U119C has a self-cleavage of 1.56.
Variant C17U U87A A107U has a self-cleavage of 0.14.
With U119A C131U U134C the self-cleavage was 1.07.
U52C U62A C133U showed a self-cleavage of 0.07.
U112A A124C A140G gave a self-cleavage of 1.92.
Work on A67G U100C U112C yielded a self-cleavage of 0.
Variant C37A U46A U109A has a self-cleavage of 1.13.
With U20C A59U C71U the self-cleavage was 0.34.
With U5C U9C A124G U134C A138U the self-cleavage was 0.
For U9C A67G U134C, the self-cleavage was 0.4.
With U12C U73C A140G the self-cleavage was 0.51.
Variant A77G U87C U112C has a self-cleavage of 1.15.
With G8A U115A U134G the self-cleavage was 1.61.
A2U U13C A24G C37U A141G U143C showed a self-cleavage of 1.03.
Variant U52C A57U A79G has a self-cleavage of 0.24.
With U26A G58C U62C U119C A136G the self-cleavage was 0.33.
For G89A U108C A142G, the self-cleavage was 0.02.
In the case of A77U U100C U143C, the self-cleavage is reported as 1.75.
Work on C56U A79G C103A yielded a self-cleavage of 0.
U12C U29A U73A U104A C123U gave a self-cleavage of 1.59.
A59G A64G A142G gave a self-cleavage of 0.
Variant U14C A31C A138U has a self-cleavage of 1.05.
U20C U39A U87A gave a self-cleavage of 0.16.
U14C U15C U39C U87C gave a self-cleavage of 0.42.
Work on A57U U62C A129G A141G A142U yielded a self-cleavage of 0.05.
Work on U14A A117G U132C yielded a self-cleavage of 1.84.
Variant A42G A57G A129U has a self-cleavage of 2.37.
A43G U81A U91C showed a self-cleavage of 0.48.
A67G G126A A136G showed a self-cleavage of 0.59.
For U14C U39C G40A A140G, the self-cleavage was 0.5.
With A43U U52C C66A A129G the self-cleavage was 0.02.
Work on A42G U85C A142G yielded a self-cleavage of 0.41.
U13C A77G A140U gave a self-cleavage of 2.39.
U9C A42G C84G gave a self-cleavage of 0.51.
U14A A67C A129U gave a self-cleavage of 0.23.
With U13C G54A A67G A94G A107G A138G the self-cleavage was 0.
Work on A22G G89A U130C yielded a self-cleavage of 0.04.
Work on U23C A64U U108C yielded a self-cleavage of 0.97.
A22G G48A A141G gave a self-cleavage of 0.88.
For U13C U62C A79U, the self-cleavage was 0.09.
With A6C G32U G93U U102C A141G the self-cleavage was 0.09.
With U12C G105A U134C the self-cleavage was 2.15.
In the case of A67G A77G G82A, the self-cleavage is reported as 1.18.
G27U U45G U115C gave a self-cleavage of 0.8.
U20C U85A U143C gave a self-cleavage of 0.13.
U13C A59G C128A showed a self-cleavage of 0.08.
A57U A79G U96C U104A gave a self-cleavage of 0.
Work on U15A U115C U143A yielded a self-cleavage of 0.74.
In the case of A59G U104A U134C, the self-cleavage is reported as 0.07.
Variant A69G A107G A136U has a self-cleavage of 0.71.
Variant U20A G105A A140G has a self-cleavage of 1.25.
Variant C66U A69G U96C has a self-cleavage of 0.05.
Work on U46C A79G G80A G86A U91A U112C C120A A141G yielded a self-cleavage of 0.11.
Work on U96A U130C A140G yielded a self-cleavage of 0.05.
For U15C A64G U81C U104C, the self-cleavage was 0.
In the case of A6G A94G U100C U102A, the self-cleavage is reported as 0.
Work on A22G A94G A142G yielded a self-cleavage of 0.22.
U1C A117U A136G gave a self-cleavage of 0.62.
Work on U26C A64G A69U A94G U100A A141G yielded a self-cleavage of 0.
For U91A A94G U96C C113U, the self-cleavage was 0.06.
In the case of U62C U112C C116U A136U U143C, the self-cleavage is reported as 0.03.
U14A A124U A138G A141G gave a self-cleavage of 1.79.
A67G U85C A136G gave a self-cleavage of 0.
In the case of U26C A42U U62A, the self-cleavage is reported as 0.16.
Work on U12C U73C U130A yielded a self-cleavage of 2.3.
With U119A A121U U132C the self-cleavage was 1.78.
In the case of U12A U39A A59G, the self-cleavage is reported as 0.2.
With U1C A31G A77U the self-cleavage was 1.53.
U20A A50G A78G showed a self-cleavage of 0.22.
U13C A43G U52C C90U U134A showed a self-cleavage of 0.1.
G60A A77C A78U U81C U100C A124U gave a self-cleavage of 0.
With U15C U26C A30C A31G A79G G106A C123U the self-cleavage was 0.75.
Work on G93U U104C C146U yielded a self-cleavage of 0.05.
Variant A57G U102C U115A has a self-cleavage of 0.35.
In the case of A22G A57G G89A U119C A124G, the self-cleavage is reported as 0.16.
Work on U39C U47C A79G U143C yielded a self-cleavage of 1.35.
With U5A U20G G72A U91C U115C the self-cleavage was 0.21.
For A65U A67G A77U C84U, the self-cleavage was 0.06.
U14C U46C A138G showed a self-cleavage of 1.52.
Work on A2G U132C U134C yielded a self-cleavage of 0.
With A31U A136U A138G the self-cleavage was 0.68.
With A50G A79G C123U A129G U130C the self-cleavage was 1.53.
U13C U14C U87G A124U A136G showed a self-cleavage of 1.15.
For U13C C61A A124C, the self-cleavage was 0.07.
A31G A57U U81A U85C A124U showed a self-cleavage of 0.09.
Variant A78U U130C U143A has a self-cleavage of 2.15.
With A42G U52A G82U U96C U130C A141G the self-cleavage was 0.15.
Variant U5C U13G G36A U143C has a self-cleavage of 0.79.
With U26A U96C C110U the self-cleavage was 0.11.
In the case of A6G A31U A42G, the self-cleavage is reported as 0.
Work on U15C U29C U87C yielded a self-cleavage of 0.43.
With U23A A77G G83U U85C U112C the self-cleavage was 0.06.
In the case of A43G U46C A121C, the self-cleavage is reported as 0.68.
In the case of A6G A57G G97A, the self-cleavage is reported as 0.19.
